These results are taken from patent US20230093512A1 (NANJING GENSCRIPT BIOTECH, published 2023).

In the test the target is human PD-L1 (PD-L1 aAPC/CHO-K1 cells) (human, UniProt Q9NZQ7). The experiment in a line: cell-based or functional assay.
Sequence of UniProt Q9NZQ7 (Q9NZQ7 19-290): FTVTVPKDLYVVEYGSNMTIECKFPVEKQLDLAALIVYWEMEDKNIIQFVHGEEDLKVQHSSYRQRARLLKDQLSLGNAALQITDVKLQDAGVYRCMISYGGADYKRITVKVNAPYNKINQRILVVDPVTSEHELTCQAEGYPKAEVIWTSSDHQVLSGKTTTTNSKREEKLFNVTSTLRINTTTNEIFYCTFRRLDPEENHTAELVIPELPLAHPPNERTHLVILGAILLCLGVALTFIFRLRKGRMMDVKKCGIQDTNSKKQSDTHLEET

B1: ADD19-15-L03-E (other)
heavy chain H1: EVQLVQSGAEVKKPGASVKVSCKASGYIFTGYGITWVRQAPGQGLEWMGEIFPRRVQTYYSEKFKGRVTMTTDTSTSTAYMELRSLRSDDTAVYYCARDYDPYFALDYWGQGTTVTVSSASTKGPSVFPLAPSSKSTSGGTAALGCLVKDYFPEPVTVSWNSGALTSGVHTFPAVLQSSGLYSLSSVVTVPSSSLGTQTYICNVNHKPSNTKVDKRV[gap - human IgG1 Fc]
light chain L3 (L0 fused at its C-terminus to TBRII-ECD by the E-linker): DIQMTQSPSSLSASVGDRVTITCRASQDVSTAVDWYQQKPGKAPKLLIYSASYRYTGVPDRFSGSGSGTDFTFTISSLQPEDIATYYCQQHYSIPFTFGQGTKLEIKRTVAAPSVFIFPPSDEQLKSGTASVVCLLNNFYPREAKVQWKVDNALQSGNSQESVTEQDSKDSTYSLSSTLTLSKADYEKHKVYACEVTHQGLSSPVTKSFNRGECEPKSSDKTHTSPPSPIPPHVQKSVNNDMIVTDNNGAVKFPQLCKFCDVRFSTCDNQKSCMSNCSITSICEKPQEVCVAVWRKNDENITLETVCHDPKLPYHDFILEDAASPKCIMKEKKKPGETFFMCSCSSDECNDNIIFSEEYNTSNPD
notes: anti-PD-L1 mAb / TGFβ receptor II ectodomain fusion protein, ectodomain on the light chain
B1: the “EC50, luminescence (RLU) of PD-1 effector cells co-cultured with PD-L1 aAPC/CHO-K1 cells, PD-1/PD-L1 blockade bioassay” value was found to be 0.692 nM.

B2: ADD19-15-L03-G2 (other)
heavy: B1 heavy chain H1
light: DIQMTQSPSSLSASVGDRVTITCRASQDVSTAVDWYQQKPGKAPKLLIYSASYRYTGVPDRFSGSGSGTDFTFTISSLQPEDIATYYCQQHYSIPFTFGQGTKLEIKRTVAAPSVFIFPPSDEQLKSGTASVVCLLNNFYPREAKVQWKVDNALQSGNSQESVTEQDSKDSTYSLSSTLTLSKADYEKHKVYACEVTHQGLSSPVTKSFNRGECGSIPPHVQKSVNNDMIVTDNNGAVKFPQLCKFCDVRFSTCDNQKSCMSNCSITSICEKPQEVCVAVWRKNDENITLETVCHDPKLPYHDFILEDAASPKCIMKEKKKPGETFFMCSCSSDECNDNIIFSEEYNTSNPD
notes: also called ADD19-15-03-G2
Take B2: the “EC50, luminescence (RLU) of PD-1 effector cells co-cultured with PD-L1 aAPC/CHO-K1 cells, PD-1/PD-L1 blockade bioassay” value came to 0.665 nM.

B3: ADD19-15-L03-E10 (other)
heavy: B1 heavy chain H1
light: DIQMTQSPSSLSASVGDRVTITCRASQDVSTAVDWYQQKPGKAPKLLIYSASYRYTGVPDRFSGSGSGTDFTFTISSLQPEDIATYYCQQHYSIPFTFGQGTKLEIKRTVAAPSVFIFPPSDEQLKSGTASVVCLLNNFYPREAKVQWKVDNALQSGNSQESVTEQDSKDSTYSLSSTLTLSKADYEKHKVYACEVTHQGLSSPVTKSFNRGECDKTHTSPPSPIPPHVQKSVNNDMIVTDNNGAVKFPQLCKFCDVRFSTCDNQKSCMSNCSITSICEKPQEVCVAVWRKNDENITLETVCHDPKLPYHDFILEDAASPKCIMKEKKKPGETFFMCSCSSDECNDNIIFSEEYNTSNPD
notes: also called ADD19-15-03-E10
On to B3, for which the “EC50, luminescence (RLU) of PD-1 effector cells co-cultured with PD-L1 aAPC/CHO-K1 cells, PD-1/PD-L1 blockade bioassay” value came to 0.724 nM.

B4: ADD19-15-L03-E12 (other)
heavy: B1 heavy chain H1
light: DIQMTQSPSSLSASVGDRVTITCRASQDVSTAVDWYQQKPGKAPKLLIYSASYRYTGVPDRFSGSGSGTDFTFTISSLQPEDIATYYCQQHYSIPFTFGQGTKLEIKRTVAAPSVFIFPPSDEQLKSGTASVVCLLNNFYPREAKVQWKVDNALQSGNSQESVTEQDSKDSTYSLSSTLTLSKADYEKHKVYACEVTHQGLSSPVTKSFNRGECESKYGPPSPPSPIPPHVQKSVNNDMIVTDNNGAVKFPQLCKFCDVRFSTCDNQKSCMSNCSITSICEKPQEVCVAVWRKNDENITLETVCHDPKLPYHDFILEDAASPKCIMKEKKKPGETFFMCSCSSDECNDNIIFSEEYNTSNPD
notes: also called ADD19-15-03-E12
For B4, the “EC50, luminescence (RLU) of PD-1 effector cells co-cultured with PD-L1 aAPC/CHO-K1 cells, PD-1/PD-L1 blockade bioassay” value came to 0.704 nM.

B5: ADD19-15-L03-E4 (other)
heavy: B1 heavy chain H1
light: DIQMTQSPSSLSASVGDRVTITCRASQDVSTAVDWYQQKPGKAPKLLIYSASYRYTGVPDRFSGSGSGTDFTFTISSLQPEDIATYYCQQHYSIPFTFGQGTKLEIKRTVAAPSVFIFPPSDEQLKSGTASVVCLLNNFYPREAKVQWKVDNALQSGNSQESVTEQDSKDSTYSLSSTLTLSKADYEKHKVYACEVTHQGLSSPVTKSFNRGECSPPSIPPHVQKSVNNDMIVTDNNGAVKFPQLCKFCDVRFSTCDNQKSCMSNCSITSICEKPQEVCVAVWRKNDENITLETVCHDPKLPYHDFILEDAASPKCIMKEKKKPGETFFMCSCSSDECNDNIIFSEEYNTSNPD
notes: also called ADD19-15-03-E4
B5: the “EC50, luminescence (RLU) of PD-1 effector cells co-cultured with PD-L1 aAPC/CHO-K1 cells, PD-1/PD-L1 blockade bioassay” value is 0.621 nM.

B6: ADD19-15-L03-E8 (other)
heavy: B1 heavy chain H1
light: DIQMTQSPSSLSASVGDRVTITCRASQDVSTAVDWYQQKPGKAPKLLIYSASYRYTGVPDRFSGSGSGTDFTFTISSLQPEDIATYYCQQHYSIPFTFGQGTKLEIKRTVAAPSVFIFPPSDEQLKSGTASVVCLLNNFYPREAKVQWKVDNALQSGNSQESVTEQDSKDSTYSLSSTLTLSKADYEKHKVYACEVTHQGLSSPVTKSFNRGECDKTHTSPPIPPHVQKSVNNDMIVTDNNGAVKFPQLCKFCDVRFSTCDNQKSCMSNCSITSICEKPQEVCVAVWRKNDENITLETVCHDPKLPYHDFILEDAASPKCIMKEKKKPGETFFMCSCSSDECNDNIIFSEEYNTSNPD
notes: also called ADD19-15-03-E8
Regarding B6, the “EC50, luminescence (RLU) of PD-1 effector cells co-cultured with PD-L1 aAPC/CHO-K1 cells, PD-1/PD-L1 blockade bioassay” value is 0.626 nM.

B7: ADD19-15-L03-E5 (other)
heavy: B1 heavy chain H1
light: DIQMTQSPSSLSASVGDRVTITCRASQDVSTAVDWYQQKPGKAPKLLIYSASYRYTGVPDRFSGSGSGTDFTFTISSLQPEDIATYYCQQHYSIPFTFGQGTKLEIKRTVAAPSVFIFPPSDEQLKSGTASVVCLLNNFYPREAKVQWKVDNALQSGNSQESVTEQDSKDSTYSLSSTLTLSKADYEKHKVYACEVTHQGLSSPVTKSFNRGECSPPSPIPPHVQKSVNNDMIVTDNNGAVKFPQLCKFCDVRFSTCDNQKSCMSNCSITSICEKPQEVCVAVWRKNDENITLETVCHDPKLPYHDFILEDAASPKCIMKEKKKPGETFFMCSCSSDECNDNIIFSEEYNTSNPD
notes: also called ADD19-15-03-E5
As to B7, the “EC50, luminescence (RLU) of PD-1 effector cells co-cultured with PD-L1 aAPC/CHO-K1 cells, PD-1/PD-L1 blockade bioassay” value amounted to 0.611 nM.

B8: ADD19-15-H01-E (other)
heavy chain H6 (H1 fused at its C-terminus to TBRII-ECD by the E-linker): EVQLVQSGAEVKKPGASVKVSCKASGYIFTGYGITWVRQAPGQGLEWMGEIFPRRVQTYYSEKFKGRVTMTTDTSTSTAYMELRSLRSDDTAVYYCARDYDPYFALDYWGQGTTVTVSSASTKGPSVFPLAPSSKSTSGGTAALGCLVKDYFPEPVTVSWNSGALTSGVHTFPAVLQSSGLYSLSSVVTVPSSSLGTQTYICNVNHKPSNTKVDKRV[gap - human IgG1 Fc]EPKSSDKTHTSPPSPIPPHVQKSVNNDMIVTDNNGAVKFPQLCKFCDVRFSTCDNQKSCMSNCSITSICEKPQEVCVAVWRKNDENITLETVCHDPKLPYHDFILEDAASPKCIMKEKKKPGETFFMCSCSSDECNDNIIFSEEYNTSNPD
light chain L0: DIQMTQSPSSLSASVGDRVTITCRASQDVSTAVDWYQQKPGKAPKLLIYSASYRYTGVPDRFSGSGSGTDFTFTISSLQPEDIATYYCQQHYSIPFTFGQGTKLEIKRTVAAPSVFIFPPSDEQLKSGTASVVCLLNNFYPREAKVQWKVDNALQSGNSQESVTEQDSKDSTYSLSSTLTLSKADYEKHKVYACEVTHQGLSSPVTKSFNRGEC
notes: anti-PD-L1 mAb / TGFβ receptor II ectodomain fusion protein, ectodomain on the heavy chain
Consider B8, for which the “EC50, luminescence (RLU) of PD-1 effector cells co-cultured with PD-L1 aAPC/CHO-K1 cells, PD-1/PD-L1 blockade bioassay” value turned out to be 0.635 nM.

B9: ADD19-15-00 (antibody, human IgG1, kappa)
heavy: B1 heavy chain H1
light: B8 light chain L0
notes: H1 is H0 with K214R and A297N in the Fc region; also called GSADD19-15-00; modified anti-PD-L1 mAb
Turning to B9, the “EC50, luminescence (RLU) of PD-1 effector cells co-cultured with PD-L1 aAPC/CHO-K1 cells, PD-1/PD-L1 blockade bioassay” value was 0.48 nM.
